# Results as given in PubChem BioAssay AID686979 (National Center for Advancing Translational Sciences (NCATS), 2013).
# Among all 420,000 compounds or so, about 50,000 (12%) were called active. Inconclusive results, whose numbers are uncertain, are shown with a selection of clear calls. Calls follow the shape of the dose curve; as a rule, active = well fitted inhibition curve with a large enough effect; inconclusive = small, poorly fitted or top-dose-only effect; inactive = flat fitted curve, though single readings scatter. No potency is given beside an inconclusive call; the fits are too rough.
# Test: qHTS for Inhibitors of human tyrosyl-DNA phosphodiesterase 1 (TDP1): qHTS in cells in presence of CPT; also: nearly all actives have a fitted effect of over 55% in size
# Details: chicken DT40 Tdp1-/-;hTDP1 cells + 20 nM CPT, ATP luminescence, 48 h; activity change, negative = growth inhibition: at 46.2 µM (top of the series) unless noted
# In short: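 Cell growth measured by CellTiter-Glo luminescence after a minimum 48 h, 37 C compound exposure with 20 nM CPT in Tdp1-knockout DT40 cells stably expressing hTDP1, seeded 400/well; qHTS titration format.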
# % is scaled to controls: 0 for no effect and ±100 for the full control effect; potency is read from the fitted curve at half-maximal effect; tags tell the direction and shape of the fitted curve.
SMILES,Potency,"activity change, negative = growth inhibition"
O=C(CSc1ncccc1-c1nc2ccccc2[nH]1)N1CCCCC1,"inconclusive [inhibitor, single point]",–
CCC(CC)C(=O)c1c[nH]c(C(=O)NCc2ccccc2)c1,–,inactive: -27.5%
CC(C)(C)c1ccc(C(=O)N/C(=C\c2cccs2)C(=O)N2CCOCC2)cc1,–,inactive: -28.5%
COc1cccc(NC(=O)c2oc3ccccc3c2NC(=O)C2CC2)c1,"inconclusive [inhibitor, single point]",–
Cn1c(CCN2CCCCC2)nc2cc(NC(=O)COc3ccc(Cl)cc3)ccc21,"inconclusive [inhibitor, single point]",–
COc1ccc(NCC(=O)N/N=C/c2c(C)nn(Cc3ccccc3)c2Cl)cc1,–,inactive: -19.7%
C#CCN1C(=O)C(O)(CC(=O)c2ccc3c(c2)OCCO3)c2ccccc21 (stereo not given),"inconclusive [inhibitor, single point]",–
Cc1cc(-n2c(C)cc(C(=O)CSc3ncnc4ccccc34)c2C)no1,active: 1.84 µM,–
O=C(CS(=O)(=O)c1cn(Cc2ccc(Cl)cc2)c2ccccc12)N1CCCC1,"inconclusive [inhibitor, single point]",–
CC(=O)N1CCN(c2ccc(NCc3ccc4c(c3)OCO4)cc2)CC1,–,inactive: -27.2%
CCOc1ccc(C(=O)NCC(c2ccco2)S(=O)(=O)c2cccs2)cc1 (stereo not given),"inconclusive [inhibitor, single point]",–
O=C(N/N=C/c1ccc([N+](=O)[O-])o1)C1CCCC1,"inconclusive [inhibitor, single point]",–
COC(=O)C(C#N)C(c1cccnc1)c1c(C)[nH][nH]c1=O (stereo not given),–,inactive: -7.75%
CC1(c2nc3ccccc3[nH]2)CCCC2=Nc3ccccc3CN21 (stereo not given),"inconclusive [inhibitor, single point]",–
Cc1ccc(NC(=O)NC2CCCCCCC2)cc1C,–,inconclusive: -12.7% [inhibitor]
Cn1c(O)c(N=NC(=O)C2COc3ccccc3O2)c2ccccc21 (stereo not given),"inconclusive [inhibitor, single point]",–
Cc1cc(C)n(-c2nc3sc4c(c3c3nnc(SC(C)C)n23)CC(C)(C)OC4)n1,–,inactive: -12.8%
COc1ccc(CC(C)N2CCN(Cc3ccccc3)CC2)c(OC)c1 (stereo not given),"inconclusive [inhibitor, partial curve]",–
NC(=O)c1ccc(NC(=O)COC(=O)c2c3c(nc4ccccc24)/C(=C\c2cccs2)CCC3)cc1,"inconclusive [inhibitor, single point]",–
COc1ccc(CCNC(=O)c2cc(S(=O)(=O)N3CCCCCC3)ccc2OC)cc1OC,"inconclusive [inhibitor, single point]",–
